# Values joined by “and” are separate entries in the source; they are usually repeats but may differ in a detail not shown here. Identical values can stand only once. This list was built around the results that the source calls inconclusive (neither active nor inactive); the mix of calls is not that of the screen. For some of these results: Potencies beside an inconclusive call are fits to weak or partial responses and may not hold up. Active and inactive are the calls of the source. Unless noted, the call rests on the fitted dose curve; in most records, active means well fitted curve in the direction sought with a large enough effect in the repeat runs; inconclusive means weak or mixed curves; inactive means no such curve, though single readings can be large; an effect the other way counts as inactive or inconclusive.
# Legend:
# [1] = target: Bile acid receptor (Homo sapiens) (UniProt Q96RI1); assay: qHTS assay to identify small molecule agonists of the farnesoid-X-receptor (FXR) signaling pathway (AID 743220; active means well fitted activation curve with a large enough effect in the signal ratio in the repeat runs, not every such curve was filed as active; inconclusive means weak or mixed curves, or effect the other way; the % refers to the signal ratio; further: potency means the concentration at half of the fitted maximal effect); conditions: HEK293T FXR-UAS-bla, beta-lactamase FRET ratio, 16 h; activation: at 62.6 µM (top of the series) unless noted
# Outline: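 Beta-lactamase reporter under UAS control in GeneBLAzer FXR HEK 293T cells (5000/well) measured with LiveBLAzer FRET substrate after 2 h at room temperature. Compound exposure lasted 16 h at 37C.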
# [2] = qHTS assay to identify small molecule antagonists of the androgen receptor (AR) signaling pathway using the MDA cell line in the presence of 0.5 nM R1881 - cell viability counter screen (AID 1259242); further: on the % scale 0 is the no-effect control and ±100 the full control effect; nearly all actives have a fitted effect of over 45% in size
# Outline: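 MDA-kb2 cells (human breast carcinoma, stably carrying MMTV-luciferase reporter) were exposed to compounds with 0.5 nM R1881 (final) for 16 hr at 37C, 0% CO2; viability then read as live-cell protease fluorescence (CellTiter-Fluor, 30 min) in the same wells.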
# [3] = target: Cytochrome P450 3A4 (Homo sapiens) (UniProt P08684); assay: Cytochrome P450 Family 3 Subfamily A Member 4 (CYP3A4) small molecule antagonists: luciferase reporter qHTS assay (AID 1671201); further: potency means the concentration at half of the fitted maximal effect; nearly all actives have a fitted effect of over 50% in size
# Outline: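 qHTS, 1536-well. CYP3A4 + proluciferin substrate, cpd 10 min RT → NADPH regen 1 h RT → detection reagent 20 min → luminescence (RLU). Ketoconazole positive control.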
# [4] = target: Nuclear receptor subfamily 1 group I member 2 (Homo sapiens) (UniProt O75469); assay: Human pregnane X receptor (PXR) small molecule agonists, qHTS assay (AID 1346982); further: on the % scale 0 is the no-effect control and ±100 the full control effect; nearly all actives have a fitted effect of over 35% in size
# Outline: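 PXR-Luc HepG2 cells (CYP3A4 promoter-driven luciferase) were seeded in medium with 5% charcoal-stripped FBS, left 5 hr at 37 C, then exposed to compounds in DMSO for 24 hr. Luminescence was read after ONE-Glo addition.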
# [5] = qHTS assay for small molecule agonists of the antioxidant response element (ARE) signaling pathway - cell viability counter screen (AID 743203; calls by dose curve; further: on the % scale 0 is the no-effect control and ±100 the full control effect; nearly all actives have a fitted effect of over 55% in size); conditions: ARE-bla HepG2 viability, CellTiter-Glo luminescence, 16 h; viability change, negative = cytotoxic: at 73.3 µM (top of the series)
# Outline: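 CellSensor ARE-bla HepG2 cells, 2,000 per well, rested 5 hrs at 37C/5% CO2, then exposed to compound in DMSO for 16 hrs; viability read as CellTiter-Glo luminescence after 30 min at room temperature, in the reporter wells.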
# [6] = Human pregnane X receptor (PXR) small molecule agonists, qHTS cell viability counter screen (AID 1346977); further: on the % scale 0 is the no-effect control and ±100 the full control effect; nearly all actives have a fitted effect of over 50% in size
# Outline: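 Cytotoxicity counter screen run in the same wells as the PXR luciferase assay, using PXR-Luc HepG2 cells in charcoal-stripped serum medium. Viability: CellTiter-Fluor fluorescence after 24hr compound treatment.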
# [7] = target: Nuclear receptor subfamily 1 group I member 2 (Rattus norvegicus) (UniProt Q9R1A7); assay: Rat pregnane X receptor (rPXR) activation by small molecules, qHTS assay (AID 1346983); conditions: rPXR luciferase reporter cells, One-Glo luminescence, 24 h; max activation: hits give high values; further: nearly all actives have a fitted effect of over 20% in size; further: potency means the concentration at half of the fitted maximal effect; on max activation: on the % scale 0 is the no-effect control and ±100 the full control effect
# Outline: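 Cell-based rPXR activation assay: rPXR cells, 2,000 per well, rested 5hr at 37 C, then exposed to compounds in DMSO for 24 hr at 37 C. Luciferase activity read by One-Glo luminescence after 30 min at room temperature.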
# [8] = qHTS assay to test for compound auto fluorescence at 535 nm (green) in HepG2 cells (AID 720675); conditions: green autofluorescence 485/535 nm, 1 h; fluorescence, % of fluorescein control: at 91.3 µM (top of the series) unless noted; further: potency means the concentration at half of the fitted maximal effect
# [9] = qHTS assay to test for compound auto fluorescence at 460 nm (blue) in HEK293 cells (AID 720678); further: potency means the concentration at half of the fitted maximal effect
# Outline: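 Blue-channel (Ex/Em 405/460 nm) intensity measured in HEK293 cultures after overnight compound exposure at 37C; signal expressed relative to triamterene. Cells plated 2,000 per well in 10% dialyzed FBS medium and allowed 4-5 hr to attach.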
# [10] = qHTS assay to test for compound auto fluorescence at 460 nm (blue) in HepG2 cell free culture (AID 720685); further: potency means the concentration at half of the fitted maximal effect
# Outline: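 Compound (23 nL) or DMSO pinned into cell-free MEM with 10% FBS; blue fluorescence read at 405/460 nm excitation/emission, expressed as auto-fluorescence equivalency to triamterene.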
# [11] = qHTS assay to test for compound auto fluorescence at 460 nm (blue) in HepG2 cells (AID 720687); further: potency means the concentration at half of the fitted maximal effect
# Outline: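 HepG2 cells in MEM with 10% FBS, attached overnight at 37 C, were exposed to compound or DMSO for 1 hr at 37 C, 5% CO2. Blue fluorescence was read at 405/460 nm, with triamterene as reference fluorophore.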
# [12] = target: Vitamin D3 receptor (Homo sapiens) (UniProt P11473); assay: qHTS assay to identify small molecule agonists of the vitamin D receptor (VDR) signaling pathway (AID 743222; calls by dose curve; further: potency means the concentration at half of the fitted maximal effect; on activation: on the % scale 0 is the no-effect control and ±100 the full control effect); conditions: HEK293T VDR-UAS-bla, beta-lactamase FRET ratio, 16 h; activation: at 63.5 µM (top of the series) unless noted
# Outline: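 VDR-bla cells were plated 4 h at 37C/5% CO2, then exposed to compounds in DMSO for 16 h. After LiveBLAzer B/G FRET substrate addition and 2 h at room temperature, beta-lactamase reporter fluorescence was read.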
# [13] = qHTS assay to identify small molecule agonists of the sonic hedgehog signaling (Shh) pathway - cell viability counter screen (AID 1259366); further: on the % scale 0 is the no-effect control and ±100 the full control effect; nearly all actives have a fitted effect of over 50% in size
# Outline: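 Cells are plated at 2,000 per well and left 4hr at 37C, 5% CO2 before compound addition. After 23hr of treatment, CellTiter-Fluor reagent is added for 1hr at 37C and fluorescence is measured.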
# [14] = qHTS assay to identify small molecule agonists of the vitamin D receptor (VDR) signaling pathway - cell viability counter screen (AID 743224); further: nearly all actives have a fitted effect of over 50% in size; further: potency means the concentration at half of the fitted maximal effect
# Outline: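 VDR-bla cells were preincubated 4 h at 37C/5% CO2, then exposed to compounds for 16 h. After the 2 h room-temperature bla FRET read, CellTiter-Glo was added to the same wells and luminescence read after 30 min.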
# [15] = Caspase-3/7 induction in CHO-K1 cells by small molecules, qHTS assay (AID 1346980); further: on the % scale 0 is the no-effect control and ±100 the full control effect; nearly all actives have a fitted effect of over 15% in size
# Outline: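 Wild-type CHO-K1 cells exposed to compounds for 17hr at 37 C, 5% CO2. Caspase-3/7 activity then measured by Caspase-Glo 3/7 luminescence after 30min at room temperature.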
# [16] = target: Peroxisome proliferator-activated receptor delta (Homo sapiens) (UniProt Q03181); assay: qHTS assay to identify small molecule antagonists of the peroxisome proliferator-activated receptor delta (PPARd) signaling pathway (AID 743215; active means well fitted inhibition curve with a large enough effect in the signal ratio in the repeat runs, not every such curve was filed as active; inconclusive means weak or mixed curves, or effect the other way; inactive means no such curve, though single readings can be large or run the other way; the % refers to the signal ratio;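 further: cells stimulated with agonist L165041 at 300 nM final during compound exposure; on the % scale 0 is the no-effect control and ±100 the full control effect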); conditions: HEK293H PPARd-UAS-bla, beta-lactamase FRET ratio, antagonist, 17 h; ratio activity, negative = inhibition: at 62 µM (top of the series) unless noted
# Outline: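 PPARd UAS-bla HEK293H cells were pre-incubated 5 h at 37 C, then given test compounds in DMSO plus agonist L165041 (300 nM final). After 17 h at 37 C, beta-lactamase FRET substrate was added; fluorescence read after 2 h at room temperature.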
# [17] = qHTS assay to identify small molecule antagonists of the peroxisome proliferator-activated receptor delta (PPARd) signaling pathway - cell viability counter screen (AID 743213); conditions: PPARd-bla HEK293H viability, CellTiter-Glo luminescence, 17 h; viability change, negative = cytotoxic: at 62 µM (top of the series) unless noted; further: nearly all actives have a fitted effect of over 50% in size; further: potency means the concentration at half of the fitted maximal effect; on viability change, negative = cytotoxic: on the % scale 0 is the no-effect control and ±100 the full control effect
# Outline: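 Cytotoxicity counter screen: CellTiter-Glo luminescence read 30 min after addition, in the same wells as the reporter assay. There, PPARd UAS-bla HEK293H cells (3000/well) were treated 17 h at 37 C with compound and 300 nM L165041.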
# [18] = target: Cytochrome P450 2D6 (Homo sapiens) (UniProt P10635); assay: Cytochrome P450 Family 2 Subfamily D Member 6 (CYP2D6) small molecule antagonists: luciferase reporter qHTS assay (AID 1671196); further: nearly all actives have a fitted effect of over 50% in size; further: potency means the concentration at half of the fitted maximal effect
# Outline: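 CYP2D6 enzyme–substrate mix was held with compound for 10 min at room temperature, then NADPH regeneration solution was added and the reaction ran 1 h at room temperature. Luciferin product was detected by luminescence after 20 min with detection reagent.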
# [19] = qHTS assay to identify small molecule agonists of the estrogen receptor alpha (ER-alpha) signaling pathway in the presence of an antagonist - cell viability counter screen (AID 1259386);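 further: cells exposed to compounds for 22 h at 37 °C before the viability read; on the % scale 0 is the no-effect control and ±100 the full control effect; nearly all actives have a fitted effect of over 30% in size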
# Outline: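 VM7Luc4E2 cells (endogenous full-length ER-alpha, 4×ERE-luciferase) were held 5 days in phenol red-free medium with 10% charcoal-stripped FBS, plated, then given 10.0nM ICI-182,780 and compounds at 15 concentrations for 22hr at 37C; viability read by CellTiter-Fluor fluorescence.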
# [20] = target: Progesterone receptor (Homo sapiens) (UniProt P06401); assay: qHTS assay to identify small molecule agonists of the progesterone receptor (PR) signaling pathway (AID 1346784; calls by dose curve; further: nearly all actives have a fitted effect of over 30% in size; further: potency means the concentration at half of the fitted maximal effect); conditions: PR-UAS-bla HEK293T, beta-lactamase FRET ratio, 16 h; activation: at 92.4 µM (top of the series) unless noted
# Outline: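 Cells (PR-UAS-bla HEK 293T, GripTite) were plated in assay medium containing 2% charcoal-stripped FBS and incubated 6 hr. Test compounds in DMSO were added for 16 hr at 37C. FRET substrate was then loaded for 2 hr at room temperature before fluorescence reading.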
# Tags describe the fitted curve by direction and shape or compound fluorescence and quenching.
# UniProt P06401, sequence (P06401 whole entry, looked up): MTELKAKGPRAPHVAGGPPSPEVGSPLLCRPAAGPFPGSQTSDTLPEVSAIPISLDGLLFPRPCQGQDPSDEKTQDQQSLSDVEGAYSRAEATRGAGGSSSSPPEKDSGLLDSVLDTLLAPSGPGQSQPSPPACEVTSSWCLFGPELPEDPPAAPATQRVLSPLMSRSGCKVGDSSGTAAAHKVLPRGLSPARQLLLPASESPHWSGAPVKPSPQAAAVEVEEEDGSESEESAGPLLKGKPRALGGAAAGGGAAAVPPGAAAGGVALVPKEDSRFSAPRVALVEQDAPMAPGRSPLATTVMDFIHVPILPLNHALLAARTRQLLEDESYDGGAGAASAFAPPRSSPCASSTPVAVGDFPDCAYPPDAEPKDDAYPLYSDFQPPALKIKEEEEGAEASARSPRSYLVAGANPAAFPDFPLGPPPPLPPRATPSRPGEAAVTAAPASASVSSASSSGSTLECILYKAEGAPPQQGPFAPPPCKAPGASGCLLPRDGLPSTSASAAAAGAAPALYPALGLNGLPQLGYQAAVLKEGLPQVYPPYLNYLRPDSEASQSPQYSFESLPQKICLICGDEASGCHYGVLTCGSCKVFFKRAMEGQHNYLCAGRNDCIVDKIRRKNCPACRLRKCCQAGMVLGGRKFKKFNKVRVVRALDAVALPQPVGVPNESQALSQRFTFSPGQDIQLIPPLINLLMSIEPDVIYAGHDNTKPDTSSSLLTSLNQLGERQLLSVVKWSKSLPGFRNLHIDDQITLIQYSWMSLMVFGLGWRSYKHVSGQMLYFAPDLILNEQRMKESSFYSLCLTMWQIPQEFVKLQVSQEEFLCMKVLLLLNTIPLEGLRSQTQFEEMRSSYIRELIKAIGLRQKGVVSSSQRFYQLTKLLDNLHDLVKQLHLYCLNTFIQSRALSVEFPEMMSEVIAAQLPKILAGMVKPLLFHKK
# UniProt P10635, sequence (P10635 whole entry, looked up): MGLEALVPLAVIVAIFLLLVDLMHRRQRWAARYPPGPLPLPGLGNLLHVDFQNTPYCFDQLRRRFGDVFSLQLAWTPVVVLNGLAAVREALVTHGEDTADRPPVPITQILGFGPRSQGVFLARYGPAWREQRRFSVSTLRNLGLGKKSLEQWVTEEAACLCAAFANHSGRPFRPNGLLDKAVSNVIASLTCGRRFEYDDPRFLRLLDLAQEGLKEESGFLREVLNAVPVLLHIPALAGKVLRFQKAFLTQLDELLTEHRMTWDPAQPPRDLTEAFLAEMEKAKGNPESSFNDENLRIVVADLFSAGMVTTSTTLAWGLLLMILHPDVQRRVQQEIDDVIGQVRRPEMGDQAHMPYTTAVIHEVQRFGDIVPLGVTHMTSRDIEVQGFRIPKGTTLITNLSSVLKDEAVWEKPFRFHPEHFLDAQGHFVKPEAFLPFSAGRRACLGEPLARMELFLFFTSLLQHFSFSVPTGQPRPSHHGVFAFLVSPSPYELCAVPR
# UniProt Q9R1A7, sequence (Q9R1A7 whole entry, looked up): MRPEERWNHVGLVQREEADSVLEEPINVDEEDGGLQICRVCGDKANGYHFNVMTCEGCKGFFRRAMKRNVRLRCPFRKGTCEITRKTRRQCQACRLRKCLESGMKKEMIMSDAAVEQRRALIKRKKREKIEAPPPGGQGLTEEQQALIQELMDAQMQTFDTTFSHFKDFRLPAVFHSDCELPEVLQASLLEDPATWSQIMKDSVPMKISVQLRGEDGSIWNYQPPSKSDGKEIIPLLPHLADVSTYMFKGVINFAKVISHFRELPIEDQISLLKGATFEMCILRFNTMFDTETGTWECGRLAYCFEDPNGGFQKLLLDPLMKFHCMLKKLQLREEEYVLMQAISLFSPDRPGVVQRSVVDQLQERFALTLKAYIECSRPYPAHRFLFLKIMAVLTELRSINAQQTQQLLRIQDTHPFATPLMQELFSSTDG
# UniProt O75469, sequence (O75469 whole entry, looked up): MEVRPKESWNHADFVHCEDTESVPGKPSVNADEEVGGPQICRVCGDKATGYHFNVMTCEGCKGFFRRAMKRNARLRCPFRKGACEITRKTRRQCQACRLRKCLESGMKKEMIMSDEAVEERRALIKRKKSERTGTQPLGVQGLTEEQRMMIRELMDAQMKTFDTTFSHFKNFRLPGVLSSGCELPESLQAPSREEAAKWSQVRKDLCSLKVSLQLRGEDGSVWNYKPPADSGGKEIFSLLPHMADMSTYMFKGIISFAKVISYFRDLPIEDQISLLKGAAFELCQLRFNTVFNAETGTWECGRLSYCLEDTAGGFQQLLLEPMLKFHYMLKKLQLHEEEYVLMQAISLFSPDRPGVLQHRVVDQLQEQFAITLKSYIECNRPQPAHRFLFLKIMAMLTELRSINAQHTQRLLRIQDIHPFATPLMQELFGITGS
# UniProt Q03181, sequence (Q03181 whole entry, looked up): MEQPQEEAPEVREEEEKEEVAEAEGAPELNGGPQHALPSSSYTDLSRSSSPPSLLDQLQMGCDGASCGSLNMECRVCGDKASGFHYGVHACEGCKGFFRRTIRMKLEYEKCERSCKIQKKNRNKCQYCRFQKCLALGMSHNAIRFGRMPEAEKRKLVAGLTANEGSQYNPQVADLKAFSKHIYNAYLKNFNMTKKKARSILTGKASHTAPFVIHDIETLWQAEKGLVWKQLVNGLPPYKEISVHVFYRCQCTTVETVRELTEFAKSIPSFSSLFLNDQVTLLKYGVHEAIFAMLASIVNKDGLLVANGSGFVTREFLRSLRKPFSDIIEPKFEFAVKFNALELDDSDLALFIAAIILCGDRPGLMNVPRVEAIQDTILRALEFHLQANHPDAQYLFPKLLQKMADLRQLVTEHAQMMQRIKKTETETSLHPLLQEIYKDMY
# UniProt P11473, sequence (P11473 whole entry, looked up): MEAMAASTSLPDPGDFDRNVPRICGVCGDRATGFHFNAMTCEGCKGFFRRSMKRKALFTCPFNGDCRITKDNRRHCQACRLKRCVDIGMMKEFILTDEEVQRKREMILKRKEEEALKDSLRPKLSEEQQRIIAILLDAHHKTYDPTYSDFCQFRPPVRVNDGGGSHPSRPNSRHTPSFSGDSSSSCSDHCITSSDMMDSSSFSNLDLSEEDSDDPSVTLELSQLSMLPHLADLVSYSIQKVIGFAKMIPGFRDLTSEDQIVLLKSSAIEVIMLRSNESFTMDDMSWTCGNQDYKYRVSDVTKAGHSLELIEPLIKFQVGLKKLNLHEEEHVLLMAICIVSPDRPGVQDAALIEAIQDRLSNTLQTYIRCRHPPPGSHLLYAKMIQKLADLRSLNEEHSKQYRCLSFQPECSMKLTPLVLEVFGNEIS
# UniProt Q96RI1, sequence (Q96RI1 whole entry, looked up): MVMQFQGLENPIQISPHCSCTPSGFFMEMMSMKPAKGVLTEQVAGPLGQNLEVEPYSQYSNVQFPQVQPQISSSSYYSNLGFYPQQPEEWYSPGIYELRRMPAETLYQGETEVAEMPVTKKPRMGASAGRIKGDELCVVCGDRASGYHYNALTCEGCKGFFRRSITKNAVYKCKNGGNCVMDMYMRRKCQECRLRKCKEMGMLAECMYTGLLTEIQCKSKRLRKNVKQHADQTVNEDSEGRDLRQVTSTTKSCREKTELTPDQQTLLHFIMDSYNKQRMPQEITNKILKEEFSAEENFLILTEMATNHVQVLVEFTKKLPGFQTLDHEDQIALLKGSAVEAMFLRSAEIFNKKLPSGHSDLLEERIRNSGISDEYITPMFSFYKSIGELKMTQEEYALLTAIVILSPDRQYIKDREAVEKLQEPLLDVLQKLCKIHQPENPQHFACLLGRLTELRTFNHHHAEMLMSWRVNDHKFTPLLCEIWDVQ
# UniProt P08684, sequence (P08684 whole entry, looked up): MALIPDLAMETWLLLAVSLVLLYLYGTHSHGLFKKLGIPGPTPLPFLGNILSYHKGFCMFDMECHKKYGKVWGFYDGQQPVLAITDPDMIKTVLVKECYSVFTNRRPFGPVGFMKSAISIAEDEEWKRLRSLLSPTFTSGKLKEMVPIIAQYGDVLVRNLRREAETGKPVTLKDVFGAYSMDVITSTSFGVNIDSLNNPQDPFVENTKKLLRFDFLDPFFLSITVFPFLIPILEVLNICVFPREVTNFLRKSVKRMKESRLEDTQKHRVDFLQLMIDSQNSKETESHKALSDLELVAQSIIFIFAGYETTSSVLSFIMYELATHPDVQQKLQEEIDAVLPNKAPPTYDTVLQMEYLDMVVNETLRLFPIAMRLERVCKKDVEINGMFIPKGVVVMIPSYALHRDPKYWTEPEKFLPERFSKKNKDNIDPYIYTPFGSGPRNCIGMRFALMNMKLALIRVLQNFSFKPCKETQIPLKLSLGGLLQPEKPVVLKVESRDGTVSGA
structure (smiles),measurement,setting,value
NS(=O)(=O)c1cc2c(cc1Cl)NC(CSCc1ccccc1)=NS2(=O)=O,Potency,[1],"inconclusive: 13.3 µM [rising, single point]"
same,Potency,[2],inactive
same,Potency,[3],"inconclusive: 13.8 µM [inhibitor, partial curve]"
O=P(O)(OCc1ccccc1)OCc1ccccc1,Potency,[2],inactive
OC/C=C/c1ccccc1,Potency,[4],inactive
CC/C=C\CC1=C(C)CCC1=O,Potency,[5],inactive
same,Potency,[6],inactive
CC[C@H]1OC(=O)[C@H](C)C(=O)[C@H](C)[C@@H](O[C@@H]2O[C@H](C)C[C@H](N(C)C)[C@H]2O)[C@](C)(OC)C[C@@H](C)C(=O)[C@H](C)[C@H]2N(CCCCn3cnc(-c4cccnc4)c3)C(=O)O[C@]12C,Potency,[7],"inconclusive: 25.1 µM [activator, single point]"
same,max activation,[7],inactive: 2.76%
CC1=CC=C(C(C)C)CC1,Potency,[6],inactive
CCCCC(=O)OCC(=O)[C@]1(O)Cc2c(O)c3c(c(O)c2[C@@H](O[C@H]2C[C@H](NC(=O)C(F)(F)F)[C@H](O)[C@H](C)O2)C1)C(=O)c1c(OC)cccc1C3=O,Potency,[7],"inconclusive: 11.2 µM [activator, single point]"
CC(=O)[C@]1(O)Cc2c(O)c3c(c(O)c2[C@@H](O[C@H]2C[C@H](N)[C@H](O)[C@H](C)O2)C1)C(=O)c1c(O)cccc1C3=O,Potency,[8],"inconclusive: 12.6 µM [rising, partial curve] and inconclusive: 11.2 µM [rising, partial curve]"
CCOC(=O)C1=C(COCCN)NC(C)=C(C(=O)OC)C1c1ccccc1Cl (stereo not given),Potency,[9],"inconclusive: 15.8 µM [fluorescent, single point]"
same,Potency,[10],"inconclusive: 12.6 µM [fluorescent, partial curve, poor fit]"
same,Potency,[11],"inconclusive: 12.6 µM [fluorescent, partial curve, poor fit]"
COC(=O)[C@H]1[C@H]2C[C@@H]3c4[nH]c5ccccc5c4CCN3C[C@H]2C[C@@H](OC(=O)c2cc(OC)c(OC)c(OC)c2)[C@@H]1OC,Potency,[8],"inconclusive: 15.8 µM [rising, partial curve, poor fit]"
same,Potency,[9],"inconclusive: 12.6 µM [fluorescent, partial curve, poor fit]"
same,Potency,[11],"inconclusive: 14.1 µM [fluorescent, partial curve, poor fit]"
COc1cc2c(cc1O)CCN[C@]21CS[C@@H]2c3c(OC(C)=O)c(C)c4c(c3[C@H](COC1=O)N1[C@@H]2[C@H]2c3c(cc(C)c(OC)c3O)C[C@@H]([C@@H]1O)N2C)OCO4,Potency,[9],"inconclusive: 39.8 µM [fluorescent, single point]"
same,Potency,[10],"inconclusive: 35.5 µM [fluorescent, single point]"
same,Potency,[11],"inconclusive: 39.8 µM [fluorescent, partial curve, poor fit]"
COCc1ccc(COC)cc1,Potency,[12],"inconclusive: 2.45 µM [rising, partial curve]"
same,Potency,[13],inactive
same,Potency,[6],inactive
CCN1CCN(C(=O)N[C@@H](C(=O)N[C@@H]2C(=O)N3[C@@H]2SC(C)(C)[C@H]3C(=O)O)c2ccccc2)C(=O)C1=O,Potency,[1],"inconclusive: 11.9 µM [falling, single point]"
same,Potency,[14],"inconclusive: 0.0033 µM [rising, full curve]"
same,Potency,[15],inactive
Nc1ccc(S(=O)(=O)Nc2ccc(Cl)nn2)cc1,Potency,[16],inactive
same,Potency,[12],inactive
Cc1ccsc1C(=CCCN1CCC[C@@H](C(=O)O)C1)c1sccc1C,Potency,[17],inactive
same,Potency,[16],inactive
same,Potency,[12],"inconclusive: 8.41 µM [fluorescent, partial curve]"
OC1OC[C@@H](O)[C@H](O)[C@H]1O (stereo not given in full),Potency,[18],inactive
Cc1cccc([N+](=O)[O-])c1C(=O)O,Potency,[17],"inconclusive: 1.23 µM [cytotoxic, single point]"
same,Potency,[19],inactive
COC(=O)OC,"viability change, negative = cytotoxic",[5],inconclusive: -31.4% [cytotoxic]
same,Potency,[17],inactive
CC(C)NC(=O)c1ccccc1N,"ratio activity, negative = inhibition",[16],inconclusive: 1.17%
same,Potency,[3],"inconclusive: 35.6 µM [inhibitor, partial curve]"
CC(C)NCC(O)COc1ccc(COCCOC(C)C)cc1 (stereo not given),activation,[20],inconclusive: 18.3% [at 42.5 µM]
CC(=O)OC1C2(C)CCC(C2)C1(C)C (stereo not given),Potency,[19],inactive
Cc1nc([N+](=O)[O-])cn1-c1ccc([N+](=O)[O-])cc1,Potency,[12],inactive
same,Potency,[18],"inconclusive: 43.6 µM [inhibitor, single point]"
CC(C)Cn1cnc2c1c(=O)n(C)c(=O)n2C,Potency,[20],"inconclusive: 33.5 µM [rising, partial curve, poor fit]"
CCCCC/C=C\CCC=O,Potency,[15],inactive
Cc1cccc(C)c1NC(=O)c1ccccc1C(=O)O,Potency,[14],inactive
same,Potency,[20],inactive
same,Potency,[4],inactive
O=C(O)Cc1csc(-c2ccc(Cl)cc2)n1,"ratio activity, negative = inhibition",[16],inconclusive: 4.07%
N=C(N)c1ccccc1,Potency,[11],"inconclusive: 50.1 µM [fluorescent, partial curve, poor fit]"
same,Potency,[18],"inconclusive: 39.6 µM [inhibitor, partial curve]"
O=C1OC(=O)c2ccc3c4c(ccc1c24)C(=O)OC3=O,Potency,[13],inactive
O=C(Nc1cccc(C2=NCCN2)c1)Nc1cccc(C2=NCCN2)c1,activation,[4],inactive: -0.413% [at 19 µM]
CCOC(=O)c1cccnc1,Potency,[19],inactive
same,Potency,[18],inactive

# Source: PubChem BioAssay (Tox21)
